Measurements published in article PMC8826447 (Nature Communications, 2022).

Target: T1, TLK2 (LRF/AAA), kinase active (human, UniProt Q86UE8 1-772, L16A | R19A | F20A)
T1 sequence (looked up): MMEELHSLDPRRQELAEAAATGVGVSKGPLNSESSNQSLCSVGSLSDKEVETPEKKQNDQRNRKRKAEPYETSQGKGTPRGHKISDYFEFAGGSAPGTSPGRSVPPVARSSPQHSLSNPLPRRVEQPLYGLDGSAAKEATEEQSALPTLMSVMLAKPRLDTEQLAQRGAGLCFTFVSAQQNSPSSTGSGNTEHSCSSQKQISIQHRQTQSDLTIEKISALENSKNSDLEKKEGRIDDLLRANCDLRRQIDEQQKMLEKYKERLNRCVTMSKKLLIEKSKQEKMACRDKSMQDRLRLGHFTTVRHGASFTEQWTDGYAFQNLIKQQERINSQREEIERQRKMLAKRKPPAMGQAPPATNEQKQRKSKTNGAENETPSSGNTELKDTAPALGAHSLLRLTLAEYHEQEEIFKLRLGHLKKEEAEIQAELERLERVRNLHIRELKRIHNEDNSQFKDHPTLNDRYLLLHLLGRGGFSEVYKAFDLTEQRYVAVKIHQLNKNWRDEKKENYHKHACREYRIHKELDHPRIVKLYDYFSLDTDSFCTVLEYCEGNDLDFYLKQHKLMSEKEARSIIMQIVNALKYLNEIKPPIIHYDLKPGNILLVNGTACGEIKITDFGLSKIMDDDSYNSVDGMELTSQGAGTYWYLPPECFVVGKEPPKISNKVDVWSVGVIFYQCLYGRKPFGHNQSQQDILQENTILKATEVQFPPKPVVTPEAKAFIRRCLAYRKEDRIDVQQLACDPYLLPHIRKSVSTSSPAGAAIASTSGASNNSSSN
Experiment: cell-based or functional assay

B1: FLAG-tagged ASF1a V94R (natural protein)
chain: not shown
in vitro kinase assay ([γ-32P]ATP): impact of the ASF1a H3 binding interface mutation V94R on phosphorylation by TLK2 (LRF/AAA): < 2 fold

B2: FLAG-tagged ASF1a D88A (natural protein)
chain: not shown
in vitro kinase assay ([γ-32P]ATP): impact of the ASF1a H3 binding interface mutation D88A on phosphorylation by TLK2 (LRF/AAA): < 2 fold
